# From PubChem BioAssay AID1159614 (National Center for Advancing Translational Sciences (NCATS), 2016)
# About 65 (0.1%) of roughly 45,000 compounds were called active. Calls come from the whole dose curve; as a rule, active = well fitted activation curve with a large enough effect; inconclusive = small, poorly fitted or top-dose-only effect; inactive = no such curve, though single readings can be large or run the other way. Some of the results follow.
# Biological target: Galactocerebrosidase (Homo sapiens) (UniProt P54803)
# Chain of UniProt P54803 (P54803 whole entry, looked up): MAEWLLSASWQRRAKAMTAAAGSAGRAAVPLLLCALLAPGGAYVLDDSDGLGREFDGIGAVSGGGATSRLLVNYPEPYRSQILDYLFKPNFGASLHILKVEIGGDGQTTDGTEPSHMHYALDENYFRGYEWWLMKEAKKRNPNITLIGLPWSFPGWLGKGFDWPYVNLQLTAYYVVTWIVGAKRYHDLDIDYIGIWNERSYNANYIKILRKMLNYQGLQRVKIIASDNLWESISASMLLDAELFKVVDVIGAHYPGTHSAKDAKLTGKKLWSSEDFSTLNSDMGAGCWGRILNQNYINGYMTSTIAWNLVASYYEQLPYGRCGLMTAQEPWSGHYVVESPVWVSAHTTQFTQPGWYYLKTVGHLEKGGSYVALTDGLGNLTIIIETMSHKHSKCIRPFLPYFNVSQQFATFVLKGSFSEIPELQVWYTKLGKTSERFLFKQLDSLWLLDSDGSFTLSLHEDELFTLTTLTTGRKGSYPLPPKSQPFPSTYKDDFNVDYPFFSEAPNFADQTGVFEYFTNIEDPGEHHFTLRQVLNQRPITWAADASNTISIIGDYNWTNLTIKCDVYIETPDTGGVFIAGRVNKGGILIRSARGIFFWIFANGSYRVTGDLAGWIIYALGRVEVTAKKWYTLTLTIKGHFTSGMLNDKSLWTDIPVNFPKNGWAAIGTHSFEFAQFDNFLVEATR
# Assay: A Novel Cell-Based Assay to Identify Small Molecules for B -Galactocerebrosidase; note: nearly all actives have a fitted effect of over 65% in size; for activation: 0% is about no effect
# Conditions: 145M-Twi-hGALC-G270D cells (Twitcher mouse brain line with human GALC G270D), HMU-beta-Gal fluorescence, 48 h; series mostly up to 57.5 µM; activation: at the top concentration
# Outline: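 Brain-derived Twitcher mouse 145M-Twi cells stably expressing human GALC-G270D or wild-type GALC, treated live, then residual GALC activity read by fluorescence of HMU-b-Gal substrate (0.1 mM final) in citrate-phosphate buffer pH 5.2 with sodium taurocholate. Signal increase indicates enhancement.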
# Potency is the fitted concentration of half-maximal effect.
SMILES,activation,Potency
CCOc1cc(CNC(=O)c2ccc3nc(CCc4ccccc4)oc3c2)ccc1OC,inactive: -9.5%,
O=C(CSc1nc2ccccc2n1Cc1c(F)cccc1Cl)N1CCN(c2ccc(F)cc2)CC1,inactive: -14.4%,
O=C(CSc1nc2ccsc2c(=O)n1Cc1ccccc1Cl)NCc1ccc(Cl)cc1,inactive: -12.8%,
COc1ccc(NC(=O)CN2C(=O)C3(SCC(=O)N3c3cccc(OC)c3)c3ccccc32)cc1 (configuration not stated),inactive: -21.7%,
COc1cccc(C2=CC(c3ccccc3F)n3c(nc4ccccc43)N2)c1 (configuration not stated),inactive: -12%,
CCC(C(=O)N1CCN(c2ccccc2)CC1)n1nc(C)c2sc3ccccc3c2c1=O (configuration not stated),inactive: 0.182%,
Cc1ccccc1NC(=O)c1cnc2sc(N3CCCC3)nn2c1=O,inactive: 11.1%,
COc1ccc(N2CC(NC(=O)c3c(F)cccc3Cl)CC2=O)cc1OC (configuration not stated),inactive: -0.843%,
CCOc1ccc(N2CC(c3nc4ccccc4n3CCOc3ccc(CC)cc3)CC2=O)cc1 (configuration not stated),inactive: -11.9%,
O=C(c1ccc2c(Cl)c3c(nc2c1)CCCC3)N1CCN(c2ccccc2F)CC1,inactive: -24.4%,
O=C(Nc1nnc(SCc2cc(=O)n3cc(Cl)ccc3n2)s1)c1cccc(F)c1,inactive: -12.4%,
Cc1cccc(OCCCn2c(CCNC(=O)C(C)(C)C)nc3ccccc32)c1,inactive: -0.274%,
CCCN1CCc2nc(N3CCN(c4ncccn4)CC3)ncc2C1,inactive: -10.5%,
Cc1cccc(OCCSc2nc3ccc(NC(=O)COc4ccccc4)cc3s2)c1,inactive: -19%,
CCn1cc2nc(SCc3cc(C)ccc3C)n(Cc3ccc(OC)cc3)c(=O)c2n1,inactive: -25.4%,
Cc1ccc(C)c(CN2C(=O)c3ccccc3S(=O)(=O)c3ccc(C(=O)NCc4ccccc4)cc32)c1,inactive: -10.2%,
COc1ccc(CN(Cc2ccco2)c2cnc(S(C)(=O)=O)nc2C(=O)Nc2ccc(C)cc2C)cc1,inactive: -8.87%,
Cc1c(C(=O)NCc2ccccc2Cl)sc2nc[nH]c(=O)c12,inactive: -1.29%,
Cc1ccc2c(=O)c(C(=O)c3ccc(F)cc3)cn(CC(=O)NCCc3ccccc3)c2n1,inactive: 0.646%,
CCOCCCNC(=O)C(=O)Nc1c2c(nn1-c1ccc(OC)cc1)CSC2,inactive: -5.56%,
CCOc1ccc(C(=O)Nc2ccc3oc(-c4cccnc4)nc3c2)cc1,inactive: -19.6%,
CCC12CN3CC(CC)(CN(C1)C3c1cc(Br)ccc1OC)C2=O (configuration not stated),inactive: -14.3%,
CCn1cc(C(=O)NCc2ccc(C)cc2)c(=O)c2cc(S(=O)(=O)N3CCc4ccccc4C3)ccc21,inactive: -3.06%,
Cc1nc(-c2ccc(S(=O)(=O)N3CCN(c4ccc(F)cc4)CC3)cc2)co1,inactive: -36.9%,
CNC(=O)c1cnn(-c2nc(N)c3ncn([C@@H]4O[C@H](CO)[C@@H](O)[C@H]4O)c3n2)c1,inactive: -20.6%,

SMILES,activation,Potency
O=C(Nc1c(C(=O)N2CCN(c3ccccc3F)CC2)oc2ccccc12)c1ccccc1F,inactive: -1.48%,
O=C(CSc1nc2ccncc2[nH]1)Nc1ccccc1C(F)(F)F,inactive: 5%,
Cc1csc2nc(COC(=O)CNC(=O)c3ccccc3Cl)cc(=O)n12,inactive: -23.3%,
Cc1ccc(-n2nc3c(=O)n(CCCC(=O)NCc4ccccc4F)nc(C)c3c2C)cc1,inactive: -22.3%,
CN1CCN(CCCNC(=O)c2ccc3nc(Cc4ccccc4)oc3c2)CC1,inactive: -10.1%,
O=C(CN1CCCN(Cc2ccc(F)cc2)S1(=O)=O)NCc1ccccc1Cl,inactive: -11%,
Cc1ccc(Cn2c(CNC(=O)c3cccc(C)c3)nc3ccccc32)cc1,inactive: -9.21%,
COc1ccccc1-c1nnc(C2CCN(C(=O)c3ccc(Cl)cc3)CC2)o1,inactive: -20.2%,
COc1cccc2c1Oc1ncccc1N(C(=O)CCC(=O)NCc1ccc(C)cc1)C2,inactive: -1.35%,
N#Cc1ccccc1NC(=O)c1cnc(N2CCOCC2)c2ccccc12,inactive: 0.774%,
CCc1ccc(N(C)S(=O)(=O)c2ccc3[nH]cc(C(=O)NCC4CCCO4)c(=O)c3c2)cc1 (configuration not stated),inactive: -5.41%,
CC(=O)N1CCOc2cc(S(=O)(=O)N(C)Cc3ccccc3)c(Cl)cc21,inactive: 3.72%,
CCC(=O)N1CCc2cc(Br)cc(S(=O)(=O)CCC(=O)NCc3ccc(F)cc3)c21,inactive: -6.38%,
CCN1C(=O)C(Cc2nc3ccccc3c(=O)n2-c2ccccc2)c2cc(Br)ccc21 (configuration not stated),inactive: -42.5%,
Cc1oc(-c2ccc(C(=O)Nc3ccccc3F)cc2)nc1COc1ccccc1,inactive: -15.2%,
COc1ccc(C)cc1NC(=O)CSc1nc(=O)n(Cc2ccccn2)c2c1CCC2,inactive: -23.1%,
Cn1nnnc1SCCCNCc1cccc(OCc2ccccc2Cl)c1,inactive: -15.3%,
CCC(=O)c1c(O)cc(O)cc1O,inactive: -6.79%,
CCc1ccc2nc(N3CCN(C(=O)C4CC4)CC3)sc2c1,inactive: -2.41%,
CCOc1ccccc1NC(=O)Cn1c2ncccc2c(=O)n1-c1ccc(C)c(C)c1,inactive: -14.2%,
COc1ccc(CNc2oc(-c3ccc(COc4ccc(OC)cc4)o3)nc2C#N)cc1,inactive: -7.97%,
Cc1oc2c(c(C)cc3oc(=O)c(CC(=O)NCc4ccc(F)cc4)c(C)c32)c1C,inactive: -3.84%,
CC(=O)N1CCCc2cc(S(=O)(=O)Nc3ccc(C)c(F)c3)ccc21,inactive: -13.4%,
CCOc1ccc(NC(=O)CN2C(=O)C3(SCC(=O)N3c3ccc(F)cc3)c3ccccc32)cc1 (configuration not stated),inactive: -17.1%,
Cc1cccc(C)c1NC(=O)CN1C(=O)c2cccc3cccc1c23,inactive: -9.65%,

SMILES,activation,Potency
CCc1nn(CC(=O)N2CCN(c3cccc(C(F)(F)F)c3)CC2)c(=O)c2cccn12,inactive: -16.5%,
CC(=O)N1CCc2cc(S(=O)(=O)NC(Cc3ccccc3)C(=O)Nc3ccc(Cl)cc3)ccc21 (configuration not stated),inactive: -11.7%,
Cc1cc(C)c(OCC(=O)N(Cc2cccc(F)c2)Cc2ccco2)c(C)c1,inactive: -6.84%,
CCOC(=O)c1ccc(NS(=O)(=O)c2ccc3[nH]c4c(c3c2)CCCCC4)cc1,inactive: -36.2%,
Cc1cccc(NC(=O)Cn2c(=O)oc3cc(S(=O)(=O)NC4CCCC4)ccc32)c1,inactive: -24.2%,
COC(=O)CCNC(=O)N1CCN(c2nnc(C)c3c(C)n(-c4ccc(Cl)cc4)nc23)CC1,inactive: -18.1%,
COc1ccc(-c2cn3nc(SCC(=O)Nc4ccc(C)c(Cl)c4)ccc3n2)cc1,inactive: -9.1%,
COC(=O)c1ccc(NC(=O)CN2C(=O)c3cccc4cccc2c34)cc1,inactive: -13.7%,
Cc1ccc(NC(c2ccc(Cl)cc2)c2nnc(-c3cccc(F)c3)o2)cc1C (configuration not stated),inactive: -7.49%,
Cc1cc(C)c(NC(=O)COc2ccc3c(C)cc(=O)oc3c2)c(C)c1,inactive: 2.55%,
O=C(CSc1nc2c([nH]c3ccccc32)c(=O)n1-c1ccc(Cl)cc1)N1CCCC1,inactive: -9.24%,
O=S(=O)(NCC(Nc1ccc(Cl)cc1)c1ccccc1)c1ccccc1 (configuration not stated),inactive: -9.45%,
CCN(CCCNC(=O)c1cc(Nc2ccccc2OC)nc2ccccc12)c1cccc(C)c1,inactive: -31.7%,
COc1ccc(-c2noc(C3CC(=O)N(c4ccccc4)C3)n2)c(OC)c1 (configuration not stated),inactive: -10.4%,
COc1ccc(OC)c(CCNC(=O)c2c3c(nc4ccccc24)C(=O)N(C2CCCCC2)C3)c1,inactive: -13.9%,
COc1ccc(NC(=O)Cn2nc(C)c3nn(-c4ccc(Cl)cc4)c(C)c3c2=O)cc1,inactive: -7.86%,
COc1cccc(Nc2nc3cc(Cl)c(Cl)cc3nc2-n2nc(C)cc2C)c1,inactive: -9.35%,
CCOc1ccc(S(=O)(=O)c2cn(Cc3cc(C)ccc3C)c3ccc(OCC)cc3c2=O)cc1,inactive: -13.5%,
CCOC(=O)Cn1c(=O)oc2cc(S(=O)(=O)N3CCN(c4ccc(C(C)=O)cc4)CC3)ccc21,inactive: -2.15%,
CCOc1ccc(-c2nc(Cn3c(=O)cc(C)c4c(C)nn(-c5ccc(C)cc5)c43)c(C)o2)cc1,inactive: -6.1%,
CCc1c(C)sc2c1CCN(C(=O)Nc1ccc(F)c(Cl)c1)C2c1ccc(F)cc1 (configuration not stated),inactive: -15.1%,
COc1ccc(CCNC(=O)CCn2c(=O)c3ccccc3n(CC(=O)Nc3ccc(C)cc3C)c2=O)cc1OC,inactive: -5.26%,
O=C(Nc1ccccc1)C1CCN(S(=O)(=O)c2ccc3[nH]c4c(c3c2)CCCCC4)CC1,inactive: -7.15%,
COc1ccccc1NC(=O)C1=C(C)Nc2nc(SCc3ccccc3)nn2C1c1cccnc1 (configuration not stated),inactive: -1.65%,
CC1CCN(c2oc(/C=C/c3ccc(F)cc3)nc2C#N)CC1,,active: 25.1 µM

SMILES,activation,Potency
COc1ccccc1CNC(=O)c1cnc(N2CCCC2)nc1C,inactive: -6.01%,
CCOc1ccc(NC(=O)c2cc(S(=O)(=O)N3CCOCC3)ccc2F)cc1,inactive: -13.3%,
CCCOC(=O)c1ccc(Cn2nnc3sc4c(c3c2=O)CCC(C)C4)cc1 (configuration not stated),inactive: -9.92%,
COc1ccccc1N(CC(=O)NCCSCc1cccc(Cl)c1)S(C)(=O)=O,inactive: -9.11%,
O=C(C1CCC(Cn2c(=O)c3sccc3n(Cc3ccccc3F)c2=O)CC1)N1CCCCC1 (configuration not stated),inactive: -9.96%,
CCOc1ccc(NC(=O)c2cc3c(=O)n(Cc4cccs4)ccc3nc2C)cc1,inactive: -13.6%,
CN(C)C(=O)Nc1ccc(Cl)c(Cl)c1,inactive: -12.1%,
O=C(Nc1ccc(Cl)cc1)N1CCN(c2ccc3nnc(-c4ccccc4)n3n2)CC1,inactive: -35.3%,
Cn1c(=O)c2c(c3ccccc31)OC(=O)CC2c1cccc(F)c1 (configuration not stated),inactive: -13.8%,
CC(=O)N1C[C@H](O)C[C@H]1C(=O)O,inactive: -14.6%,
Cc1cc(C)c(NC(=O)c2ncoc2-c2ccco2)c(C)c1,inactive: -13.5%,
CC(C)NC(=O)C1CCN(C(=O)c2cc3sccc3n2Cc2ccc(Cl)cc2)CC1,inactive: -8.13%,
CCCCNC(=O)C1CCN(S(=O)(=O)c2ccc3c(ccn3CC)c2)CC1,inactive: -10.3%,
CCN(CC)CCSc1nnc2c3cc(F)ccc3n(C)c2n1,inactive: -13.5%,
O=S(=O)(O)c1ccc2nc(-c3ccccc3)[nH]c2c1,inactive: -16.9%,
CC(NC(CCc1ccccc1)C(=O)O)C(=O)N1C(=O)N(C)CC1C(=O)O (configuration not stated),inactive: -9.37%,
Cc1cc(C)cc(NC(=O)CSc2nnc(-c3cc4occc4n3C)n2-c2ccccc2C)c1,inactive: -12.5%,
COc1ccc2c(CNC3CCCCCC3)c(C(=O)O)n(Cc3cccc(F)c3)c2c1,inactive: -0.302%,
O=S(=O)(NCCc1csc2nc(-c3ccccc3)nn12)c1ccc(Cl)s1,inactive: -2.59%,
COc1ccc(-c2noc(CNS(=O)(=O)c3ccc(Br)cc3)n2)cc1OC,inactive: -10.9%,
Cc1ccc(-c2noc(CN(C(=O)COc3cc(C)cc(C)c3C)C(C)C)n2)cc1,inactive: -39.3%,
Cc1ccc(CNCc2c(C(=O)O)n(Cc3ccc(C)cc3)c3cc(C)ccc23)cc1,inactive: -0.0184%,
